The structures appear in SMILES notation. In all, about 150,000 compounds went through this assay and about 540 (0.36%) showed an effect of 50% or more. The list shows a part of the results.

For this assay, the system named is Plasmodium falciparum. Description: Primary screen in NF54 nanoGlo assay, in single point, at 2uM, 72h; a lower Z score goes with more inhibition. In kind it is functional, Erythrocyte. Conditions: timepoint 72 hour.
On to `CN1C(=O)NC2(CCN(CC#Cc3ccc(F)cc3)CC2)C1=O`, for which the % Inhibition (as a rule, the drop in the measured response relative to a control, in per cent) was -4% and the Z score is 0.58.
Taken in the same sequence, the figures for `O=C(O)[C@H]1CCN(C(=O)CCCCc2nc3ccccc3s2)C1` were 0% and 0.02.
As to `Cc1cc(C(=O)N2Cc3ccccc3C2)cc(S(N)(=O)=O)c1C`, the “% Inhibition” value was -8% and the Z score turned out to be 0.96.
Taken in the same sequence, the figures for `Cc1noc(OCC(=O)c2ccc(F)c(C)c2)n1` were -6% and 0.92.
The corresponding values for `Cc1cnn(CCC(=O)Nc2ccc(OC3CCCCC3O)cc2)c1` (centres undefined) are -4% and 0.75.
The corresponding values for `CCOc1ncccc1C(=O)Nc1nc(C(C)(C)C)cc(C(C)(C)C)n1` are 20% and -2.24.
With `Cc1noc(C)c1CN(C)Cc1ccc(CN2CCCC2)s1`, the “% Inhibition” value is reported as -2% and the Z score was determined as 0.44.
The corresponding values for `Cc1cc(CNS(=O)(=O)CCOC(C)C)on1` are 5% and -0.72.
Taken in the same sequence, the figures for `Cc1nc(C(F)(F)F)c(Cn2nc(C(C)(C)C)c(CCC#N)c2O)s1` were -21% and 2.48.
The corresponding values for `Cc1[nH]nc(-c2ccccc2Cl)c1NC(=O)CC1CCCC1` are 1% and -0.09.
On to `Cc1ccc(CNS(=O)(=O)c2cc(-c3nc(C)c(C(=O)N4CCCC4)s3)n(C)c2)cc1`, for which the “% Inhibition” value is reported as 2% and the Z score is given as -0.29.
The corresponding values for `CCOC1CC(N(C)S(=O)(=O)c2cn(C)nc2C2CCCC2)C1` (centres undefined) are -6% and 1.12.
The corresponding values for `Cc1c(Cl)cccc1NC(=O)[C@H]1CCCN(c2ccc3cc(S(=O)(=O)N4CCCC4)ccc3n2)C1` are -3% and 0.48.
Taken in the same sequence, the figures for `CCCn1cc(C(=O)N2CCn3nc([C@@H](O)CO)cc3C2)c(C)n1` were -18% and 3.2.
In the case of `COC1(C)CC(N(C)C(=O)c2ccc(CN)cc2)C1(C)C` (centres undefined), the “% Inhibition” value is -15% and the Z score is on record as 1.29.
Taken in the same sequence, the figures for `CCS(=O)(=O)Nc1ccc(S(=O)(=O)N[C@@H](C)c2cncs2)cc1F` were -39% and 4.53.
Taken in the same sequence, the figures for `C[C@@H](Cn1cccn1)C(=O)N(C)Cc1ccoc1` were -8% and 1.11.
In the case of `COc1ccc(S(=O)(=O)N2CCC3(CC2)Nc2ccc(C)c(C)c2-n2cccc23)cc1Cl`, the “% Inhibition” value turned out to be 2% and the Z score is -0.26.
Taken in the same sequence, the figures for `CCn1ccnc(NCc2ccnc(NC)c2)c1=O` were -9% and 1.74.
As for `O=C1c2ccc(Oc3cccc(Oc4ccc5c(c4)C(=O)N(c4ccccc4O)C5=O)c3)cc2C(=O)N1c1ccccc1O`, the “% Inhibition” value stood at 6% and the Z score is recorded as -0.8.
Taken in the same sequence, the figures for `Cc1c(C(C)NC(=O)OCC2CCCO2)cnn1C` (centres undefined) were -2% and 0.2.
The corresponding values for `CCn1c(=O)c2ccnn2c2ccc(C(=O)N3CCCC3)cc21` are -6% and 0.69.
As for `CCn1ccc(C(=O)N2CCC[C@](c3nnnn3CCOC)(N3CCOCC3)C2)n1`, the “% Inhibition” value is recorded as -11% and the Z score was 1.39.
Take `COc1ccc(C(C)=O)c(OCC(=O)Nc2cccc(N3CCCC3=O)c2)c1`: the “% Inhibition” value is given as -8% and the Z score turned out to be 1.3.
Taken in the same sequence, the figures for `O=C(Cc1ccc(O)cc1)Nc1ccc(Nc2ncccn2)cc1` were -12% and 2.09.
The corresponding values for `O=C(NCCc1cnn(-c2ccccc2)c1)c1cnc(Cn2cncn2)nc1O` are -20% and 1.92.
Taken in the same sequence, the figures for `CN(C)S(=O)(=O)N(CCN1CCCC1)[C@H]1CCN(S(=O)(=O)c2cccc(F)c2)C1` were 29% and -3.29.
For the molecule `CC(C)c1cc(Cn2ncn3cccc3c2=O)on1`, the “% Inhibition” value was -1% and the Z score was 0.12.
The corresponding values for `O=S(=O)(Cc1nc(O)cc(C(F)(F)F)n1)Cc1noc2c1CCCC2` are 2% and -0.25.
The corresponding values for `CN(C)c1nsc(NC[C@@H]2COc3ccccc3C2)n1` are -4% and 0.73.
Taken in the same sequence, the figures for `O=C(O)c1ccc(NCCc2cccs2)cc1` were -7% and 1.08.
Consider `Cc1cccc(CC2(NC(=O)c3cncnc3)CC2)c1`, for which the “% Inhibition” value is reported as -2% and the Z score is 0.25.
For `Cc1ccc(-c2cc(C(F)(F)F)on2)cc1S(=O)(=O)NCCc1cccs1`, the “% Inhibition” value is recorded as -5% and the Z score turned out to be 0.87.
The corresponding values for `Cc1cccc(C(=O)N(C)Cc2cc(C)on2)n1` are -8% and 1.05.
The corresponding values for `CC1CCCCN1C(=O)c1ccc(CNC(=O)CC(NC(N)=O)c2ccccc2Cl)cc1` (centres undefined) are -2% and 0.19.
With `CCN1C[C@@H](C(=O)NCc2noc(CCOC)n2)CC1=O`, the “% Inhibition” value was found to be 12% and the Z score is listed as -2.06.
Taken in the same sequence, the figures for `CCN(CCOC)C(=O)[C@@H]1CCCCCN1C` were -3% and 0.36.
In the case of `COc1ccccc1CCNC(=O)c1ccc(CN2CCN(c3ccc(C)cc3)CC2)cc1`, the “% Inhibition” value is listed as -4% and the Z score amounted to 0.38.
The corresponding values for `Cc1cccnc1NC(=O)C(=O)NCCc1c[nH]c2cccc(C)c12` are 31% and -3.54.
Taken in the same sequence, the figures for `Cc1cc(C(=O)NC2(C)CCCC2)nc(C(F)(F)F)n1` were 4% and -0.81.
With `COc1ccc(C)cc1S(=O)(=O)N1CCOC[C@H]1C1CC1`, the “% Inhibition” value amounted to 2% and the Z score is given as -0.45.
Taken in the same sequence, the figures for `O=C(Cc1ccc(F)cc1)N1CCCN(C2=Nc3cc(C(F)(F)F)ccc3Oc3ccccc32)CC1` were -13% and 2.17.

For the origin of these results see ChEMBL document CHEMBL4888484, “Replenishing the malaria drug discovery pipeline: Screening and hit evaluation of the MMV Hit Generation Library 1 (HGL1) against asexual blood stage Plasmodium falciparum ,using a nano luciferase reporter read-out” (2022).
